Reference: the supplement of paper PMC8728848
Some of the results follow.

Legend:
Assay in all cases: glycan array binding signal (z-score within array); higher = stronger binding
Conditions in all cases: glycan notation: IUPAC condensed, linker removed
[1] = target: Neu5Ac(a2-6)GlcNAc(b1-4)GlcNAc
Method in brief: (§1)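 Glycan array binding is given as a within-array Z-score, which can be read as non-binding when negative. The arrays, 3228 of them, came from the Consortium for Functional Glycomics database and were retained only where the protein sequence was available. Z-scores were averaged across arrays of the same protein sequence at different concentrations or buffers and across linkers.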

[2] = target: Neu5Ac(a2-6)GlcNAc(b1-4)GlcNAc(b1-4)GlcNAc
Method in brief: as §1

[3] = target: Neu5Ac(a2-8)Neu5Ac
Method in brief: as §1

[4] = target: Neu5Ac(a2-8)Neu5Ac(a2-3)Gal(b1-3)GalNAc(b1-4)[Neu5Ac(a2-3)]Gal(b1-4)Glc
Method in brief: as §1

[5] = target: Neu5Ac(a2-8)Neu5Ac(a2-3)Gal(b1-3)GalNAc(b1-4)[Neu5Ac(a2-8)Neu5Ac(a2-3)]Gal(b1-4)Glc
Method in brief: as §1

[6] = target: Neu5Ac(a2-8)Neu5Ac(a2-3)Gal(b1-4)Glc
Method in brief: as §1

[7] = target: Neu5Ac(a2-8)Neu5Ac(a2-3)Gal(b1-4)GlcNAc
Method in brief: as §1

[8] = target: Neu5Ac(a2-8)Neu5Ac(a2-3)[Gal(b1-3)GalNAc(b1-4)]Gal(b1-4)Glc
Method in brief: as §1

[9] = target: Neu5Ac(a2-8)Neu5Ac(a2-3)[GalNAc(b1-4)]Gal(b1-4)Glc
Method in brief: as §1

[10] = target: Neu5Ac(a2-8)Neu5Ac(a2-8)Neu5Ac
Method in brief: as §1

[11] = target: Neu5Ac(a2-8)Neu5Ac(a2-8)Neu5Ac(a2-3)Gal(b1-4)Glc
Method in brief: as §1

[12] = target: Neu5Ac(a2-8)Neu5Ac(a2-8)Neu5Ac(a2-3)[Gal(b1-3)GalNAc(b1-4)]Gal(b1-4)Glc
Method in brief: as §1

[13] = target: Neu5Ac(a2-8)Neu5Ac(a2-8)Neu5Ac(a2-3)[GalNAc(b1-4)]Gal(b1-4)Glc
Method in brief: as §1

[14] = target: Neu5Ac(a2-8)Neu5Ac(a2-8)Neu5Ac(a2-8)Neu5Ac(a2-3)[GalNAc(b1-4)]Gal(b1-4)Glc
Method in brief: as §1

[15] = target: Neu5Ac(a2-8)Neu5Gc(a2-3)Gal(b1-4)GlcNAc
Method in brief: as §1

[16] = target: Neu5Ac(b2-6)Gal(b1-4)GlcNAc
Method in brief: as §1

[17] = target: Neu5Ac(b2-6)GalNAc
Method in brief: as §1

[18] = target: Neu5Ac9Ac(a2-3)Gal(b1-3)GlcNAc
Method in brief: as §1

[19] = target: Neu5Ac9Ac(a2-3)Gal(b1-4)GlcNAc
Method in brief: as §1

[20] = target: Neu5Ac9Ac(a2-6)Gal(b1-4)GlcNAc
Method in brief: as §1

[21] = target: Neu5Gc(a2-3)Gal(b1-3)GlcNAc
Method in brief: as §1

[22] = target: Neu5Gc(a2-3)Gal(b1-3)[Fuc(a1-4)]GlcNAc
Method in brief: as §1

[23] = target: Neu5Gc(a2-3)Gal(b1-4)Glc
Method in brief: as §1

[24] = target: Neu5Gc(a2-3)Gal(b1-4)GlcNAc
Method in brief: as §1

[25] = target: Neu5Gc(a2-3)Gal(b1-4)GlcNAc(b1-3)Gal(b1-4)GlcNAc(b1-2)Man(a1-3)[Neu5Gc(a2-3)Gal(b1-4)GlcNAc(b1-3)Gal(b1-4)GlcNAc(b1-2)Man(a1-6)]Man(b1-4)GlcNAc(b1-4)GlcNAc
Method in brief: as §1

[26] = target: Neu5Gc(a2-3)Gal(b1-4)[Fuc(a1-3)]GlcNAc
Method in brief: as §1

[27] = target: Neu5Gc(a2-6)Gal(b1-4)GlcNAc
Method in brief: as §1

[28] = target: Neu5Gc(a2-6)GalNAc
Method in brief: as §1

[29] = target: Neu5Gc(a2-8)Neu5Ac(a2-3)Gal(b1-4)GlcNAc
Method in brief: as §1

[30] = target: Neu5Gc(a2-8)Neu5Gc(a2-3)Gal(b1-4)GlcNAc
Method in brief: as §1

[31] = target: Neu5Gc(a2-8)Neu5Gc(a2-3)Gal(b1-4)GlcNAc(b1-3)Gal(b1-4)GlcNAc
Method in brief: as §1

[32] = target: Neu5Gc(a2-8)Neu5Gc(a2-6)Gal(b1-4)GlcNAc
Method in brief: as §1

[33] = target: Neu5Gc(b2-6)Gal(b1-4)GlcNAc
Method in brief: as §1

B1: PFL (Pseudomonas fluorescens) (protein)
chain: MSKYAVANQWGGSSAPWHPGGTWVLGARDNQNVVAIEIKSGDGGKSFTGTMTYAGEGPIGFKAQRTGQNQYNVENQWGGNDAPWHPGGKWVIGGRDNQNVIALSVTSSDGGKNLSGTNTYANEGPIGFRGQIE
- glycan array binding signal (z-score) [1]: -0.12
- glycan array binding signal (z-score) [2]: -0.117
- glycan array binding signal (z-score) [3]: -0.112
- glycan array binding signal (z-score) [4]: -0.114
- glycan array binding signal (z-score) [5]: -0.114
- glycan array binding signal (z-score) [6]: -0.119
- glycan array binding signal (z-score) [7]: -0.113
- glycan array binding signal (z-score) [8]: -0.115
- glycan array binding signal (z-score) [9]: -0.109
- glycan array binding signal (z-score) [10]: -0.116
- glycan array binding signal (z-score) [11]: -0.114
- glycan array binding signal (z-score) [12]: -0.112
- glycan array binding signal (z-score) [13]: -0.116
- glycan array binding signal (z-score) [14]: -0.111
- glycan array binding signal (z-score) [15]: -0.005
- glycan array binding signal (z-score) [16]: -0.119
- glycan array binding signal (z-score) [17]: -0.118
- glycan array binding signal (z-score) [18]: -0.115
- glycan array binding signal (z-score) [19]: -0.114
- glycan array binding signal (z-score) [20]: -0.114
- glycan array binding signal (z-score) [21]: -0.114
- glycan array binding signal (z-score) [22]: -0.114
- glycan array binding signal (z-score) [23]: -0.112
- glycan array binding signal (z-score) [24]: -0.115
- glycan array binding signal (z-score) [25]: -0.115
- glycan array binding signal (z-score) [26]: -0.113
- glycan array binding signal (z-score) [27]: -0.116
- glycan array binding signal (z-score) [28]: -0.114
- glycan array binding signal (z-score) [29]: -0.118
- glycan array binding signal (z-score) [30]: -0.116
- glycan array binding signal (z-score) [31]: -0.114
- glycan array binding signal (z-score) [32]: -0.109
- glycan array binding signal (z-score) [33]: -0.113
